# Several values for one entry are separate records, joined by “and”; a condition that tells them apart may be missing. Equal values may be shown once. This is one part of the list. These are further read-outs of the screen, such as a control signal, another cell line or another target. No call is given for them.
# Columns and labels:
# [1] = compounds raising F508del-CFTR protein level – cell-based, HeLa F508del-CFTR, immunofluorescence, viability, primary screen (AID 1224863); settings: immunofluorescence total CFTR, 24 h, stronger effect = higher value, alamarBlue;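 for fold increase: total CFTR protein by anti-CFTR immunofluorescence in fixed cells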
# [2] = molecular target: Cystic fibrosis transmembrane conductance regulator (Homo sapiens) (UniProt P13569); experiment: as above; settings: immunofluorescence total CFTR, 24 h, stronger effect = higher value; measured here: primary screen single dose 25 uM, at 25 µM, library dosed in µM unless noted
# Chain of UniProt P13569 (P13569 whole entry, looked up): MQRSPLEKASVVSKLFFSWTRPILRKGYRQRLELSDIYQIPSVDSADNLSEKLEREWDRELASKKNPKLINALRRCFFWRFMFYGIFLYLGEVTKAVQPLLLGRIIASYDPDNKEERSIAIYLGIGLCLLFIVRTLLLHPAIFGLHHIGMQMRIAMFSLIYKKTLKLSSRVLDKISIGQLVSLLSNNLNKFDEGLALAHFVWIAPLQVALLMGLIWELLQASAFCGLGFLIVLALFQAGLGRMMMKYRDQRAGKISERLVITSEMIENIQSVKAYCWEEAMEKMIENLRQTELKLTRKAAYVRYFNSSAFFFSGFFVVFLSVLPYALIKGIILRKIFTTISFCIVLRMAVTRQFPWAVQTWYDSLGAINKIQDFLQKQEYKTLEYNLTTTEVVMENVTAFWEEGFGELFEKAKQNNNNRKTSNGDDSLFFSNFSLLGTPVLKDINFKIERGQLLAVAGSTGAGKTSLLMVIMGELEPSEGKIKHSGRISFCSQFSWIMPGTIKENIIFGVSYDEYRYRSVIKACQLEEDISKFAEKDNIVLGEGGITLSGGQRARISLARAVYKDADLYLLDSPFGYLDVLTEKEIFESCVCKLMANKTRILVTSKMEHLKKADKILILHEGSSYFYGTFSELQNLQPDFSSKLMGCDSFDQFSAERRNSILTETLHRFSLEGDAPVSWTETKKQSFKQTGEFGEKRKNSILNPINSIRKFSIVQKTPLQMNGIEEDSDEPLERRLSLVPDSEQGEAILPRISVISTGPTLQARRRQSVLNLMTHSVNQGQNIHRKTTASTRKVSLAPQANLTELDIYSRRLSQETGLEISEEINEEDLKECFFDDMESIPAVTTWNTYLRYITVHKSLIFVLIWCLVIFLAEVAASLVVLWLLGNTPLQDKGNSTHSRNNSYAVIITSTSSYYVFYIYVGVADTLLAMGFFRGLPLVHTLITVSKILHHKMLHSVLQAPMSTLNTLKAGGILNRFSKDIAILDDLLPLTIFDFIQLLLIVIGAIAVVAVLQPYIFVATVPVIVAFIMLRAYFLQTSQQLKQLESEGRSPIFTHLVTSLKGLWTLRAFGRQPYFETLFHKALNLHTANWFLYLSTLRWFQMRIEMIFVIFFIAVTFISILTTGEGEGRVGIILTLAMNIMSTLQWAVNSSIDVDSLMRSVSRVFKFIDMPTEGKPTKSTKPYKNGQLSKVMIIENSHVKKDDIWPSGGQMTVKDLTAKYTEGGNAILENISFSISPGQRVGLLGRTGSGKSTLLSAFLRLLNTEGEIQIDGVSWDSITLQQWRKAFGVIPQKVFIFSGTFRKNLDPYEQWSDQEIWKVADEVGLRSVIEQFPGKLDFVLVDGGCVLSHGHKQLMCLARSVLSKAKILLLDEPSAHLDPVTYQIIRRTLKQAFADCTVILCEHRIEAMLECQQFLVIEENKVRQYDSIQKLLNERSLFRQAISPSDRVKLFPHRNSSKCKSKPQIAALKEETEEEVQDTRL
# [3] = min viability: measured here: HeLa viability, dose 50, library dosed in µM unless noted, viability: measured here: primary viability 25 uM, at 25 µM, library dosed in µM unless noted
SMILES,"min viability [1, 3]","viability [1, 3]",fold increase [2],"min viability ([1]; measured here: HeLa viability, dose 6.25, library dosed in µM) [%]","min viability ([1]; measured here: HeLa viability, dose 50, library dosed in µM) [%]"
CCN(CC)CCCC(C)Nc1c2ccc(Cl)cc2nc2ccc(OC)cc12 (configuration not stated),26.9%,24% and 66%,0.61 and 2.44,,
Cc1cc(NC(=O)CCC2CCCCC2)n(C2CCS(=O)(=O)C2)n1 (configuration not stated),"67.9% [measured here: HeLa viability, alamarBlue, dose 0.078, library dosed in µg/mL]","92% [measured here: primary viability 10 ug/mL, library dosed in µg/mL]","4.58 [measured here: primary screen 10 ug/mL, library dosed in µg/mL]",,
CC(C)C[C@H](NC(=O)[C@H](Cc1ccccc1)NC(=O)c1cnccn1)B(O)O,"76.8% [measured here: HeLa viability, alamarBlue, dose 0.78, library dosed in µM]",64%,3.65,,
CC(=O)S[C@@H]1CC2=CC(=O)CC[C@]2(C)[C@H]2CC[C@@]3(C)[C@@H](CC[C@@]34CCC(=O)O4)[C@H]12,82.7%,84%,1.9,,
N#Cc1c(/C=C/c2cccc(Cl)c2)cc(-c2ccc(Cl)cc2)n2c1nc1ccccc12,"81.6% [measured here: HeLa viability, alamarBlue, dose 5, library dosed in µg/mL]","91% [measured here: primary viability 10 ug/mL, library dosed in µg/mL]","2.68 [measured here: primary screen 10 ug/mL, library dosed in µg/mL]",,
CCNC(=O)Cn1c(=O)/c(=C/c2sccc2C)s/c1=C\C(=O)C(C)(C)C,"80% [measured here: HeLa viability, alamarBlue, dose 5, library dosed in µg/mL]","81% [measured here: primary viability 10 ug/mL, library dosed in µg/mL]","2.04 [measured here: primary screen 10 ug/mL, library dosed in µg/mL]",,
CC[C@H](C)C(=O)O[C@H]1CCC=C2C=C[C@H](C)[C@H](CC[C@@H]3C[C@@H](O)CC(=O)O3)[C@H]21,"83.8% [measured here: HeLa viability, alamarBlue, dose 25, library dosed in µM]",82%,1.56,,
N#Cc1nc2c(S(=O)(=O)c3ccc(Cl)cc3)c(N)n(CCCN3CCOCC3)c2nc1C#N,"51.7% [measured here: HeLa viability, alamarBlue, dose 20, library dosed in µg/mL]","77% [measured here: primary viability 10 ug/mL, library dosed in µg/mL]","1.46 [measured here: primary screen 10 ug/mL, library dosed in µg/mL]",,
CC(C)(C)NC(=O)[C@H]1CCC2C3CCC4NC(=O)C=C[C@]4(C)C3CC[C@@]21C (some centres not stated),,68%,1.23,,
Nc1ccc2cc3ccc(N)cc3nc2c1,30.9%,62%,5.23,,
CN1[C@@H]2CC[C@H]1CC(OC(=O)C(CO)c1ccccc1)C2 (some centres not stated),71.8%,101% and 75%,0.88 and 3.61,,
O=C(O)/C=C/c1ccc(Cn2ccnc2)cc1,"52.1% [measured here: HeLa viability, alamarBlue, dose 25, library dosed in µM]",105% and 73%,1 and 3.21,,
O=C1/C(=C/c2ccc(Br)s2)COc2ccccc21,"67.4% [measured here: HeLa viability, alamarBlue, dose 10, library dosed in µg/mL]","70% [measured here: primary viability 10 ug/mL, library dosed in µg/mL]","1.46 [measured here: primary screen 10 ug/mL, library dosed in µg/mL]",,
CC(C)n1c(/C=C/[C@@H](O)C[C@@H](O)CC(=O)O)c(-c2ccc(F)cc2)c2ccccc21,,88% and 82% and 95%,1.87 and 1.67 and 2.05,84.3,82.1
CCCN[C@H]1CCc2nc(N)sc2C1,"59.9% [measured here: HeLa viability, alamarBlue, dose 12.5, library dosed in µM]",88% and 82%,0.98 and 2.43,,
O=C1COc2ccc(C(=O)/C=C/c3ccc(N4CCOCC4)cc3)cc2N1,"67.8% [measured here: HeLa viability, alamarBlue, dose 20, library dosed in µg/mL]","92% [measured here: primary viability 10 ug/mL, library dosed in µg/mL]","4.35 [measured here: primary screen 10 ug/mL, library dosed in µg/mL]",,
CC(=O)c1c(C)[nH]c(-c2csc(/C(C#N)=C\c3ccc[nH]3)n2)c1C,"56.2% [measured here: HeLa viability, alamarBlue, dose 20, library dosed in µg/mL]","60% [measured here: primary viability 10 ug/mL, library dosed in µg/mL]","1.07 [measured here: primary screen 10 ug/mL, library dosed in µg/mL]",,
COCc1c(C(C)C)nc(C(C)C)c(/C=C/[C@@H](O)C[C@@H](O)CC(=O)O)c1-c1ccc(F)cc1,"68.1% [measured here: HeLa viability, alamarBlue, dose 25, library dosed in µM]",87%,1.51,,
O=[N+]([O-])c1ccc(/C=C/c2nc(-c3ccc(F)cc3)cs2)cc1,"77.7% [measured here: HeLa viability, alamarBlue, dose 0.63, library dosed in µg/mL]","92% [measured here: primary viability 10 ug/mL, library dosed in µg/mL]","1.59 [measured here: primary screen 10 ug/mL, library dosed in µg/mL]",,
COc1cc(/C=C(/C#N)c2nc(C)cs2)cc2c1OCO2,"68.9% [measured here: HeLa viability, alamarBlue, dose 0.31, library dosed in µg/mL]","105% [measured here: primary viability 10 ug/mL, library dosed in µg/mL]","7.36 [measured here: primary screen 10 ug/mL, library dosed in µg/mL]",,
Oc1cccc2ccc(/C=C/c3cccc4c3OCO4)nc12,"62.6% [measured here: HeLa viability, alamarBlue, dose 20, library dosed in µg/mL]","72% [measured here: primary viability 10 ug/mL, library dosed in µg/mL]","1.6 [measured here: primary screen 10 ug/mL, library dosed in µg/mL]",,
CN(Cc1cnn(-c2ccccc2)c1)C(=O)c1cnc2sccn2c1=O,"99.8% [measured here: HeLa viability, alamarBlue, dose 20, library dosed in µg/mL]","94% [measured here: primary viability 10 ug/mL, library dosed in µg/mL]","1.5 [measured here: primary screen 10 ug/mL, library dosed in µg/mL]",,
CNc1ccc(Cl)cc1N,"60.6% [measured here: HeLa viability, alamarBlue, dose 1.25, library dosed in µg/mL]","80% [measured here: primary viability 10 ug/mL, library dosed in µg/mL]","2.25 [measured here: primary screen 10 ug/mL, library dosed in µg/mL]",,
C=C[C@H]1CN2CC[C@H]1C[C@@H]2[C@@H](O)c1ccnc2ccc(OC)cc12,,103%,1.01,,
O=C(c1cc(C(=O)c2ccccc2)c2nc3ccccc3n2c1)c1ccccc1O,"88.9% [measured here: HeLa viability, alamarBlue, dose 20, library dosed in µg/mL]","77% [measured here: primary viability 10 ug/mL, library dosed in µg/mL]","2.39 [measured here: primary screen 10 ug/mL, library dosed in µg/mL]",,
O=C1/C(=C/c2ccccc2F)CSc2ccccc21,"55.2% [measured here: HeLa viability, alamarBlue, dose 20, library dosed in µg/mL]","72% [measured here: primary viability 10 ug/mL, library dosed in µg/mL]","1.33 [measured here: primary screen 10 ug/mL, library dosed in µg/mL]",,
CN1C2CC[C@@H]1CC(OC(=O)[C@H](CO)c1ccccc1)C2 (some centres not stated),,93%,1,,
CCc1ccc(C(=O)NC2CCN(C3CC3)CC2)o1,"67.7% [measured here: HeLa viability, alamarBlue, dose 0.31, library dosed in µg/mL]","96% [measured here: primary viability 10 ug/mL, library dosed in µg/mL]","1.65 [measured here: primary screen 10 ug/mL, library dosed in µg/mL]",,

# From PubChem BioAssay AID1224863 (Southern Research Institute, 2016)
